± gives the standard deviation of the averaged measurements. The full ranking holds about 4,100 sequences; the median of “arbitrary fluorescence units” is about 780, and the highest 2% start at about 22,000. This is one part of the list.

In the experiment the target is T1, ETS1 (UniProt P14921).
T1 sequence: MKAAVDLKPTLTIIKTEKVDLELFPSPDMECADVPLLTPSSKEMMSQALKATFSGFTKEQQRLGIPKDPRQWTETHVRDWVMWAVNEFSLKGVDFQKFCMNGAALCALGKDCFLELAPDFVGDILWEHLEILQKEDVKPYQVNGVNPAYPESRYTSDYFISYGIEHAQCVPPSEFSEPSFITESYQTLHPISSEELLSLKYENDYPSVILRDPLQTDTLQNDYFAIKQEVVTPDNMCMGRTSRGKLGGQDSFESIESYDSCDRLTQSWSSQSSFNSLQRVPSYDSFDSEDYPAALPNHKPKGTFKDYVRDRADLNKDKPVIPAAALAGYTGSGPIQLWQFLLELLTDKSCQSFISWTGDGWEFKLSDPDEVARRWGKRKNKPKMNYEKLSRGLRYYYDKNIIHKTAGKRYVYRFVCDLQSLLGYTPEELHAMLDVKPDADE
The experiment in a line: ETS1 binding intensity (PBM fluorescence), ETS1 alone (arbitrary fluorescence units); higher = stronger binding. Particulars: ETS1 concentration 1 nM; RUNX1 concentration 0 nM. On the procedure:
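gcPBM on 36-bp genomic-derived probes (partner site mutated) containing one ETS1 site and no RUNX1 site. Recombinant human ETS1 (1 nM) was incubated alone or with RUNX1 (25 nM) and detected by anti-ETS1 antibody fluorescence. Values are medians over 4 replicate spots (not normalised). The probes sit in constant array flanks that are not printed.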
Turning to GGTAAATCACAGCTGCCTGAAGCAGGAAGATGAGGG, the ETS1 binding intensity came out at 419.
AGTCTGTGATAATTTGTTATGTAGCGATAGGAAGTG: the ETS1 binding intensity is 349.
Turning to GTGGCGAAAGTGCGGATGCGAAACCCCTGGCTCGGC, the ETS1 binding intensity turned out to be 499.
Sequence AAAGGGAAGTTCGCGGGAGGTCAAATCCACCGGGGC registered an ETS1 binding intensity of 460.
In turn, CAGTCCGGAATCCCACGCTCCCTAGCCCGAGGTGAG yielded an ETS1 binding intensity of 375.
In turn, TAAAATTTCGGGAGGGGACTTGGTCCTTCCTGTTGC yielded an ETS1 binding intensity of 735.
As to ACTCCCCGTGATAACCTTGTTCATCCGCTGAAGCCC, the ETS1 binding intensity came to 479.
On to AACAGTCACATCCGGGGCCGAGAGGAACCCCGAACG, for which the ETS1 binding intensity stood at 16200.
In the case of AAACTGGCCAGAGAGCAGTCTCCGGAAGCTGCCTCT it was 738; in that of CACCGGCGCAGTTCGCGGGAGCGCTCTTCCTGGGGC, 565; in that of CGCCTCATTTCCTGTGCAACTGCTGTAAAAATAGGA, 22400.
GTAGGTGAGGTACGCCGCACCAGGAAATACTGAAAC: the ETS1 binding intensity amounted to 463.
As to ACGGTCAATGGCCGTAAACCGGGAGGAAGGCGGGAG, the ETS1 binding intensity was 328.
In the case of CTGCAGTGGGCTCCGCCCAGTTCGAACTTCCTGTAG, the ETS1 binding intensity was determined as 1130.
GCATCCCGCGCGCCGAAGACCCACTTCCGGAGACCT registered an ETS1 binding intensity of 8210.
Regarding AAAGGGCTCCAGGGATGTTCTGAGCTTTACAGGCTG, the ETS1 binding intensity is 327.
The sequence AGCCAGAACTGCGCCCGGGCCGCGGAAGGAAGACTC gave an ETS1 binding intensity of 312.
To AACATGTCGCTATTTTGGGCAATTTCCTGAGGAGGC belongs 765; to AAATTGACGTTTCTGTTAGTGAAGAGGAGGAAGTCA, 377.
To GCATGCCCGACTGCACCCGCGGACCGGACCTACTTT belongs 313.1 ± 1.3; to AGCAGCTGCCAGAGGAAGTCTGCGGACGGAACAGGC, 593.
As to ACTTCACTTCCCAACCTCCCCTGTCGTTAGGTGTGG, the ETS1 binding intensity was 622.
Turning to AGCCCACACGGACCCCAGCTCCAGGAAGCCGAGCAA, the ETS1 binding intensity was found to be 384.
Take CAGTTTACGGCACTGTTGTCATTTCCGGGGTAAGAT: the ETS1 binding intensity worked out at 7030.
Turning to GAGGGGAGGTGCTTTCACAGCTTCCTCCCTACCCAC, the ETS1 binding intensity came to 641.
With CGAGCAGGAAGTGGCAAGATTTGATAGGCGGCCAGG, the ETS1 binding intensity came out at 6050.
Regarding TGGATAGTGGGACACCTCAACAGGATGTTAGTGAGG, the ETS1 binding intensity worked out at 858.
CCAGAAAGCACTTTCAGGTATGTGGAGAAGGAAGTC showed an ETS1 binding intensity of 398.
Consider CCATTTCCCCCATCACTTTGAATTGGGGTTCTTCTC, for which the ETS1 binding intensity was determined as 2770.
Sequence TGTCAGTCTGGGGTTGGGCAGGAAGTGGCTGGGCAG yielded an ETS1 binding intensity of 2060.
Sequence CCTGGGGGGCCGGAAGCCCCGCTTCGGCCCCAGCCC returned an ETS1 binding intensity of 2820.
Consider TCAGTGCACTCGGATGTTGGCCGTAGTTGGGGTTAT, for which the ETS1 binding intensity came to 388.
In the case of CGGGCCCTGTAGTTTCCAACATCCTGTAGGCGGCCT it was 3780; in that of CTGGCGCCTTACGGCCAGAAGCCCGGAATGGACGCA, 338; in that of ACTCAGTCCTGAACAACATTACTTTCCTGTCTACGT, 679.
For GTGCGGCGGGAAACGCGTTCCCCGGCAAGCGCGCCC, the ETS1 binding intensity was 581.
As to CCCCTTCCCGTTCTCCGAAAGTGCGCCGGTTGGAGC, the ETS1 binding intensity came to 2270.
In turn, TTACACCCAAGGGATGTTGTTTGGGGGGGGCGGGGT came in with an ETS1 binding intensity of 598.
The sequence CCTGCCTTCCGTCTTCCAGGCAGAACGACAGAGAGG had an ETS1 binding intensity of 1710.
The sequence AACAGCTTCCGGCACGGGGGCTGGGGTTGTGTTGGA came in with an ETS1 binding intensity of 18700.
With TCTCACCCCGAAAAGACTCCACCCTTCCTGGCCCTT, the ETS1 binding intensity came to 360.
Sequence TTCAGAGCTCCGCGACAGGGAAGACAGGAAGTCCCG came in with an ETS1 binding intensity of 1480.
On to AGCAAGATAAGCGCTGATCAGGAGCAGGAAGAGGCT, for which the ETS1 binding intensity stood at 418.
Sequence CAGGCCAAAAAGCTACACCTCAGAGGATGTAGTTCG gave an ETS1 binding intensity of 333.
AGTGGCGTGCTTTGGGGCTTTATATCCGGGAGGAGC had an ETS1 binding intensity of 766.
On to CACCTTTGTTGTAGTTTGTAAACGGAAACAAAAACA, for which the ETS1 binding intensity stood at 540.
As to ACACCGTGCTTTTCGGTTCCCGGAAGTCCTTCAGGC, the ETS1 binding intensity was 1560.
For the sequence CTGAAGAGGAAATGTATTCCTCATGTTGTAGTTGGC, the ETS1 binding intensity was 1340.
Consider GTGAGCTGGGGTGTGCAGCCCACCATTTCCTTTTCT, for which the ETS1 binding intensity was 484.
To CCCAGGCTTCCGGGTTGAATATGAGGGCTGAGGCGA belongs 9420; to ATCATCCTGACCATATGTTTCTTTAGGCCCCAAAAC, 755.
Take AAGAAAGGTTCCGGCCTGCGCCCTGCTACCGTGGCT: the ETS1 binding intensity was 2270.
Turning to CGATTCCGGAGACAGGCCCCACCGTGCTGTAAACTG, the ETS1 binding intensity was 635.
TAGACGCGCTTTTGGACTGCTATTTCCGTAAAAGTC registered an ETS1 binding intensity of 577.
CCTGGGTGTTTGGGGTTCGTTCATCCTGAGGCATAA registered an ETS1 binding intensity of 410.
Take GGGCCCTTGTAGCTCACTCCCCCACATCCTGTCTTT: the ETS1 binding intensity was found to be 1268 ± 3.5.
The sequence CTTAAGCTTCCGCACCATGATGGCGGCAGCCCCAGC yielded an ETS1 binding intensity of 3720.
In the case of CCGGGACAGGAAGAGGCTGGGGACAGCGGCGAAGGT, the ETS1 binding intensity turned out to be 2760.
Regarding CATGGGGTCCCTTTTGCGCTGTTCCCGGACGGACTA, the ETS1 binding intensity stood at 318.
Sequence TTGGTGGCTTCCTGCCCAGGAGAGCACACCCAGCTT came in with an ETS1 binding intensity of 6400.
TGCTGCGAGCCATAAACATGGTTTCCGTCGGGCCCG: the ETS1 binding intensity worked out at 534.
The sequence GGTCGGCGGCGCGCGGGATGCTGGGAAATGTAGTTT displayed an ETS1 binding intensity of 328.
TGCTGGCTTCGGCCCTTGCCGTTGCTTTCCGGCGCA had an ETS1 binding intensity of 284.

Source of the values: the supplement of paper PMC10681739.
